The source of these data is publication PMC5836133.

This is one part of the list. At the low end of the ranking the order means little.

In the test the test system is T1, GST-NbGlk1(82-244).
T1 sequence: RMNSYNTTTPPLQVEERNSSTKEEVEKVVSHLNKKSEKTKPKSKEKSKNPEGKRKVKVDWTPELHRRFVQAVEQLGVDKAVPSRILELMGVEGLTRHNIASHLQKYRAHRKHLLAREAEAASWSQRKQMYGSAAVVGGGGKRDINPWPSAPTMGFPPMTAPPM
Briefly: protein-binding microarray.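 Note: rank-based score ranging −0.5 to +0.5 with E above 0.45 taken as significant binding.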 The settings on record: NbGlk1 is a Golden2-like transcription factor of Nicotiana benthamiana; high values mean tight binding; most listed sequences are background and not binding sites; double strand, one strand shown.
For AAAGAACA, the binding signal is 0.00397 E-score. In the case of AGCCACAA, the binding signal was -0.111 E-score. Turning to AGAAACTC, the binding signal was -0.169 E-score.

On to ATATATGG, for which the binding signal turned out to be 0.224 E-score. In the case of ATAGTGCC, the binding signal was -0.0275 E-score. On to AGATAGTA, for which the binding signal is 0.177 E-score. Regarding AAATAGGC, the binding signal is -0.0451 E-score. In turn, AGGCAGAT displayed a binding signal of 0.213 E-score. Consider CACAGCCC, for which the binding signal is -0.319 E-score. In turn, CAATTAAA displayed a binding signal of 0.00938 E-score. Consider ATTTTAAA, for which the binding signal amounted to 0.244 E-score. For AAGCTTAC, the binding signal was -0.148 E-score.

The sequence AAGGGACG gave a binding signal of -0.23 E-score.

As for AGCGGTTG, the binding signal is -0.21 E-score. AATGTTAG displayed a binding signal of 0.0233 E-score.

In turn, AAATAAGA gave a binding signal of 0.162 E-score. To ATTGCCTC belongs 0.168 E-score; to ATCCTGGA, 0.296 E-score.

Turning to AGCCGGCA, the binding signal is -0.213 E-score. In the case of ATCACTTA, the binding signal amounted to 0.174 E-score. Regarding AACACGAT, the binding signal amounted to 0.237 E-score. To ACGAGCGC belongs -0.11 E-score; to CAGAGCGA, -0.0365 E-score; to AATGTTCG, -0.144 E-score. For ACTCCTAA, the binding signal was -0.114 E-score. Sequence ACGCACTC had a binding signal of -0.177 E-score.

For ACGAGGTC, the binding signal was -0.186 E-score. To AAGGCCCC belongs -0.423 E-score; to CACAAAAG, -0.0721 E-score. Sequence ATAGACTC gave a binding signal of -0.164 E-score. In turn, ACCGAGAT gave a binding signal of 0.274 E-score.

As for ACGTGCGA, the binding signal came to 0.0367 E-score. With AGTGGAGA, the binding signal amounted to 0.11 E-score.

In turn, AAGCCCGG returned a binding signal of -0.358 E-score. ATACCCCC registered a binding signal of -0.0125 E-score. To AAGAGCAC belongs -0.142 E-score. The sequence AGGATGTC showed a binding signal of -0.131 E-score. For the sequence AGTAAACC, the binding signal was -0.159 E-score. To ACCCACGG belongs -0.115 E-score. ACCAACTG returned a binding signal of -0.0572 E-score. As for ATCGCGGG, the figure is 0.261 E-score; as for CAAGTTGG, -0.179 E-score. As to ATGCTTAG, the binding signal is -0.0426 E-score. The sequence AATCCAGA gave a binding signal of 0.349 E-score. Take AAAACAAT: the binding signal turned out to be 0.143 E-score. With AGCCTGAG, the binding signal is -0.158 E-score. As to ACTGGTAG, the binding signal was -0.191 E-score. CACACTGC: the binding signal was -0.198 E-score. On to AATTATCG, for which the binding signal came to 0.131 E-score. Turning to ATTTCAAC, the binding signal was found to be 0.19 E-score.

The sequence AGGTTTTG gave a binding signal of -0.0377 E-score. With ACTTGATC, the binding signal was -0.0283 E-score. As to AGCTATGC, the binding signal is -0.141 E-score. As to AGGACGGA, the binding signal was -0.146 E-score. Consider CAACCCGA, for which the binding signal was -0.0868 E-score. As for ACGTGGGC, the figure is -0.104 E-score. Sequence ACAAACCA returned a binding signal of 0.1 E-score. For AGCATGCG, the binding signal was -0.172 E-score. As to ATAATAGA, the binding signal worked out at 0.138 E-score. AAGGGATA had a binding signal of 0.18 E-score. To CAGCGTAC belongs -0.251 E-score; to ACGTCGAC, -0.0609 E-score; to ACGGCATG, -0.123 E-score. With AATATAGA, the binding signal came to 0.271 E-score. The sequence AGTTGTCA displayed a binding signal of 0.0329 E-score. ACGCGAAT gave a binding signal of 0.244 E-score.

AAACAATG: the binding signal is -0.0893 E-score. ACAGAAAT registered a binding signal of 0.248 E-score.

As to ACATGACC, the binding signal is -0.211 E-score.

AATCTATG gave a binding signal of 0.38 E-score.

On to AGGTACCT, for which the binding signal was -0.256 E-score. As for AGCTTGAT, the figure is -0.00356 E-score; as for AACTGACC, -0.22 E-score; as for AAAAAAAT, 0.286 E-score. On to AGCCAGTC, for which the binding signal was -0.21 E-score. Regarding ACCGTAGA, the binding signal was -0.0538 E-score.

In turn, ATGAGTGA displayed a binding signal of -0.0807 E-score.

ATGTCGTA gave a binding signal of 0.0977 E-score. To ACTACTGC belongs -0.104 E-score.

ATACTTCG gave a binding signal of -0.0227 E-score. The sequence AAACATCC registered a binding signal of -0.0108 E-score.

In turn, AATAGCCG had a binding signal of -0.0189 E-score.

The sequence ACCTCCTA displayed a binding signal of -0.307 E-score. To CAATAGTG belongs -0.0417 E-score. As for CAACCTGG, the figure is -0.243 E-score; as for AGTTATCA, 0.0517 E-score.

In turn, ACTGAACA gave a binding signal of -0.0555 E-score. ACCATGCC displayed a binding signal of -0.121 E-score.

AATATCGC had a binding signal of 0.331 E-score. To ATGACGTA belongs 0.0469 E-score; to ATGCCCAA, 0.022 E-score; to CACGCGAA, -0.0174 E-score. Turning to AACGACAC, the binding signal is -0.107 E-score. As to AGTCCATC, the binding signal was -0.272 E-score.

AATTTCGT had a binding signal of 0.284 E-score. On to AGTATATC, for which the binding signal amounted to 0.188 E-score.

CAAACTTC showed a binding signal of -0.142 E-score. Sequence AAGGAATT returned a binding signal of 0.145 E-score. The sequence AATGGGAC registered a binding signal of -0.173 E-score. As for ACCGTAAT, the figure is 0.357 E-score; as for ATTGCGGC, 0.173 E-score; as for AGCCTGTA, -0.113 E-score. Take ATTTAGTC: the binding signal amounted to 0.0646 E-score. The sequence ACATGACA displayed a binding signal of 0.0202 E-score. AGGGATTA showed a binding signal of 0.168 E-score. Sequence CACCACAC displayed a binding signal of -0.102 E-score.

Consider ACTATCTA, for which the binding signal worked out at 0.0793 E-score. As for AGTCACTC, the binding signal is -0.192 E-score.

ACTAAGAG: the binding signal was -0.0811 E-score. The sequence AGGTTTCG registered a binding signal of -0.101 E-score. For the sequence AGCCCCCG, the binding signal was -0.317 E-score.

The sequence ATAACGTA showed a binding signal of 0.205 E-score.

In the case of AACCTGGA, the binding signal was -0.235 E-score. In turn, ACTATAAA yielded a binding signal of 0.145 E-score. The sequence ATAGCGAG gave a binding signal of -0.0611 E-score. On to AGACGTCT, for which the binding signal was 0.0763 E-score. For AGCTTTTG, the binding signal is -0.0427 E-score.

In turn, AAGTAGGA gave a binding signal of -0.0543 E-score.

AGTGGCTG had a binding signal of -0.123 E-score. ATCATGTC: the binding signal is 0.221 E-score. To ACCCTTGC belongs -0.134 E-score; to AGATTATC, 0.398 E-score; to CAATGTTC, -0.169 E-score.

The sequence AGGTTACC gave a binding signal of -0.206 E-score. AGGGACCA showed a binding signal of -0.175 E-score.

The sequence ATTCTTAG showed a binding signal of 0.253 E-score. Turning to ACTTCGAC, the binding signal was -0.0959 E-score. In the case of ATAAGATA, the binding signal is 0.301 E-score. As for ATCACTAG, the figure is 0.105 E-score. To AACCCGCA belongs 0.0128 E-score; to CAACAACA, -0.105 E-score; to AGTAATCG, 0.296 E-score.

Take ACTTGGGA: the binding signal amounted to 0.0331 E-score. AGGGGGCG returned a binding signal of -0.273 E-score. As for ATACGTAC, the figure is 0.164 E-score; as for ATCTGGGC, 0.168 E-score; as for ACGTTAAT, 0.0455 E-score.

ATTACTAG had a binding signal of 0.207 E-score. Consider ATTCTAAC, for which the binding signal is 0.138 E-score. Regarding ATTAGTGA, the binding signal is -0.0279 E-score. To AAGCTCAT belongs -0.231 E-score. ATGCCTTA came in with a binding signal of -0.13 E-score. The sequence ATGACTTG yielded a binding signal of 0.0069 E-score. The sequence ACGGACAC showed a binding signal of -0.132 E-score. ATTTTATC came in with a binding signal of 0.234 E-score. To CACGCAAA belongs -0.079 E-score; to ATGTGCGC, 0.0151 E-score. Sequence CACAGACA came in with a binding signal of -0.0348 E-score. Sequence CACCCGGA yielded a binding signal of -0.0101 E-score. Regarding ATCGGTAG, the binding signal was determined as 0.0952 E-score. In the case of ATCAGGCG, the binding signal is 0.0622 E-score. Consider CAATATCA, for which the binding signal was found to be 0.299 E-score. AGGACAAA gave a binding signal of 0.0486 E-score. Consider ACGAGTAA, for which the binding signal worked out at 0.0537 E-score. AACGACTA: the binding signal worked out at 0.0231 E-score. ACAACACG gave a binding signal of -0.0386 E-score.

Regarding CAATGTTA, the binding signal amounted to 0.0284 E-score.

Sequence AACAAGAG had a binding signal of -0.0996 E-score. As for AGCGAGAT, the figure is 0.269 E-score; as for AAAAAGGA, 0.0743 E-score. For the sequence AACGTAGA, the binding signal was determined as 0.18 E-score.

In the case of ACCACTGC, the binding signal was -0.164 E-score. Sequence AATCTGGA had a binding signal of 0.452 E-score.

In turn, CAGAAACC showed a binding signal of -0.138 E-score.

Turning to ATAGAAGA, the binding signal was determined as 0.107 E-score. As for ACAGCAAA, the figure is 0.152 E-score. The sequence ACTAGACT yielded a binding signal of -0.0748 E-score. In turn, ACAGCCTG showed a binding signal of -0.241 E-score. For ATAGTTGG, the binding signal is -0.119 E-score. For ATAGATAG, the binding signal came out at 0.111 E-score. Consider ACTACATG, for which the binding signal came out at 0.0482 E-score.

In turn, ACAGCTTC gave a binding signal of -0.152 E-score.
